{"source": "patent US20240343802A1", "about": "(Zymeworks, published 2024)", "key": {"[1]": {"target": "T1, CD19 on CD19-expressing Raji B cells (human, UniProt P15391 20-556)", "T1 construct": "whole, on cells", "T1 sequence (looked up)": "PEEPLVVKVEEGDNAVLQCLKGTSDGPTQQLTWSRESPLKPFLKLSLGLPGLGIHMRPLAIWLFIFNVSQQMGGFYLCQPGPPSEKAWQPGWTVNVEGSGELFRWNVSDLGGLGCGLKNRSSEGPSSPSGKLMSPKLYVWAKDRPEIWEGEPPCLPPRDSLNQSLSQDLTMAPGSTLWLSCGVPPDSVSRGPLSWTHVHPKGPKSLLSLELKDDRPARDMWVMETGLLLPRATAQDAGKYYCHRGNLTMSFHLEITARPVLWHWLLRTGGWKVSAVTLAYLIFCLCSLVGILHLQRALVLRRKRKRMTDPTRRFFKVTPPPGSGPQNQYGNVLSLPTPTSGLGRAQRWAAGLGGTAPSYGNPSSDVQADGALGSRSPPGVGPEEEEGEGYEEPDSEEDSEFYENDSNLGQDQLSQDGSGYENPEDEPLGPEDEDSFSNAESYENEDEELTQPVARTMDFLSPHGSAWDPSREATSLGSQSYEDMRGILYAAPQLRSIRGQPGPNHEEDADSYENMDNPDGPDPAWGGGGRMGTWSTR", "test": "whole cell binding by FACS on Raji B cells ('Binding curves anti-CD19'), RFU against concentration (nM, log axis)"}, "[2]": {"target": "T1, CD19 on CD19-expressing Raji B cells", "test": "FACS, Raji cells"}}, "data": [{"binder": "v1380, anti-CD19 BiTE (VL-VH) scFv / anti-CD3 BiTE (VH-VL) scFv heterodimeric Fc with L234A_L235A (bispecific antibody, copies: 1 + 1) chain 1: DIQLTQSPASLAVSLGQRATISCKASQSVDYDGDSYLNWYQQIPGQPPKLLIYDASNLVSGIPPRFSGSGSGTDFTLNIHPVEKVDAATYHCQQSTEDPWTFGGGTKLEIKGGGGSGGGGSGGGGSQVQLQQSGAELVRPGSSVKISCKASGYAFSSYWMNWVKQRPGQGLEWIGQIWPGDGDTNYNGKFKGKATLTADESSSTAYMQLSSLASEDSAVYFCARRETTTVGRYYYAMDYWGQGTTVTVSSA[no letters for human IgG1 Fc with changes] chain 2: not shown", "values": [{"measurement": "EC50 (read off the curve)", "setting": "[1]", "value": "~3", "unit": "nM"}, {"measurement": "Bmax", "setting": "[2]", "value": 9960}, {"measurement": "Kd", "setting": "[2]", "value": 2.95, "unit": "nM"}]}]}
